# Reference: the supplement of paper PMC4166925
# ± gives the standard deviation of the averaged measurements. The full ranking holds about 33,000 sequences; the median of “E-score (dimensionless, -0.5 to 0.5)” is about -0.049, and the highest 2% start at about 0.37. The list shows a part of the results.
# System: T1, PmTbr T-box DNA-binding domain (GST fusion)
# T1 sequence: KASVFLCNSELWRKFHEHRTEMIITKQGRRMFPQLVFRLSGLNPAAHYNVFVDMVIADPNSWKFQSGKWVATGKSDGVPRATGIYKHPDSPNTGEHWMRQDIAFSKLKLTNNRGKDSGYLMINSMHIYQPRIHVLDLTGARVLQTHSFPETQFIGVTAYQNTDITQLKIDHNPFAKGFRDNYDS
# Assay: PBM E-score of 8-mer (E-score (dimensionless, -0.5 to 0.5)); Tbr is Tbrain of the sea star Patiria miniata (Pm) or the sea urchin Strongylocentrotus purpuratus (Sp); higher = stronger binding preference; most listed sequences are background and not binding sites
# Conditions: the construct has about 5 more residues each side
# Experimental: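 Universal protein-binding microarray (Agilent AMADID 016060, 60-bp probes with a 35-bp variable region) incubated with 200 nM GST-fused Patiria miniata Tbr T-box DNA-binding domain (residues 272-466) in PBS pH 7.5. Scored for every ungapped 8-mer (given with its reverse complement) by the Universal PBM Analysis Suite as E-score (modified Wilcoxon-Mann-Whitney enrichment, range -0.5 to 0.5; >0.45 counts as bound) and Z-score of median probe intensity. Two replicate arrays (datasets 1 and 2).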
# 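Also: 200 nM protein in PBS on universal arrays averaged over duplicate arrays.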
row,Sequence,PBM E-score of 8-mer
1,CGGAGTTC,-0.195 ± 0.018
2,AATTGTGA,0.306 ± 0.019
3,TGTGAGAA,0.43 ± 0.0057
4,ACGGGATC,-0.0611 ± 0.011
5,TCCACCCA,-0.175 ± 0.0046
6,GAGAGTCA,-0.09 ± 0.016
7,GCACTGAA,0.115 ± 0.024
8,ATCAGCTC,-0.219 ± 0.011
9,ATGTAGTA,-0.143 ± 0.038
10,TAAGTCTA,-0.0537 ± 0.026
11,CTAACCCA,0.152 ± 0.045
12,CGGCCCCC,-0.246 ± 0.021
13,TGTTGAAA,0.291 ± 0.013
14,CTTTAGGA,-0.239 ± 0.055
15,AAGCTGTG,0.114 ± 0.079
16,ATGAGCTA,-0.222 ± 0.026
17,GGGATTTA,-0.232 ± 0.046
18,ACCATCAT,-0.213 ± 0.011
19,GTTAAATA,0.103 ± 0.08
20,GAACGGCA,-0.0886 ± 0.042
21,CAGCACGA,0.0849 ± 0.056
22,CACGTAAC,0.0224 ± 0.068
23,GCCGCTAC,0.0172 ± 0.041
24,AGTATGTG,0.126 ± 0.022
25,TCTTTGAA,-0.0798 ± 0.067

row,Sequence,PBM E-score of 8-mer
1,CACTATCA,0.332 ± 0.0052
2,GAACAAAA,-0.0691 ± 0.11
3,CAGTTCAA,-0.312 ± 0.0068
4,AACCAAAA,-0.164 ± 0.055
5,ATTTCTAG,-0.0723 ± 0.12
6,ACCCAGGA,-0.187 ± 0.012
7,CCCACATA,-0.214 ± 0.08
8,CCAGCACA,0.0863 ± 0.081
9,CGCTCCGC,-0.0169 ± 0.051
10,TAGGCTAA,-0.263 ± 0.042
11,GTAGTGAA,0.101 ± 0.078
12,CACGCGAA,0.198 ± 0.032
13,AATCTGCA,0.0407 ± 0.015
14,CACAAGTG,0.367 ± 0.0037
15,ATGATCGG,-0.215 ± 0.044
16,ACGGTTAA,-0.0191 ± 0.0063
17,GTGTATGA,-0.0786 ± 0.023
18,ATCCTTTA,-0.106 ± 0.024
19,ATTTATGA,-0.0871 ± 0.0076
20,AGAGGTAT,-0.131 ± 0.011
21,CGTTTGAC,0.165 ± 0.0044
22,AAATTATC,0.0435 ± 0.13
23,GACGTAAC,-0.158 ± 0.066
24,GTGTAGGA,-0.0274 ± 0.014
25,AGATTGAC,0.0989 ± 0.026

row,Sequence,PBM E-score of 8-mer
1,GAAGGATA,-0.0423 ± 0.084
2,ACAGGCGC,0.136 ± 0.067
3,AGCAGAAG,-0.0915 ± 0.094
4,TCGTATCA,0.129 ± 0.033
5,GAGCGCAA,-0.0576 ± 0.032
6,GCGGGTTA,0.0385 ± 0.009
7,CCGCGAGA,0.214 ± 0.0083
8,CGAGTCAC,0.0646 ± 0.025
9,AGCTGTTG,0.2441 ± 0.0021
10,TCGAGTAA,-0.109 ± 0.064
11,ATGAGAAG,-0.261 ± 0.0038
12,AGGCGCCT,-0.121 ± 0.11
13,ACGCGAGC,0.204 ± 0.0032
14,GAGGTCCA,-0.2525 ± 0.00076
15,CAAACTGG,0.102 ± 0.039
16,AACGAATA,-0.0889 ± 0.014
17,CACCCTCG,0.332 ± 0.039
18,GCAGTAGC,-0.139 ± 0.052
19,ACGGGGAT,0.00658 ± 0.095
20,CTTGGGTC,-0.199 ± 0.061
21,TTGGAAAA,-0.15 ± 0.084
22,AGGCAATA,-0.29 ± 0.042
23,AAGTCTGA,-0.131 ± 0.014
24,CGAGGCCG,-0.118 ± 0.051
25,CTAGGGAC,-0.0591 ± 0.03

row,Sequence,PBM E-score of 8-mer
1,GTGTCTCA,0.202 ± 0.0071
2,CACAGAAC,-0.0434 ± 0.018
3,CAGCCATA,-0.103 ± 0.029
4,AGTACGAC,-0.0402 ± 0.04
5,AGGAGAAG,-0.369 ± 0.11
6,CTTGTCAA,0.305 ± 0.034
7,AATAATAT,-0.0995 ± 0.02
8,AGCCATTC,-0.0603 ± 0.0031
9,CCACATGG,0.0188 ± 0.11
10,CACGTGTA,0.2502 ± 0.00031
11,GACATCTA,0.00475 ± 0.049
12,ATCCCCAT,-0.153 ± 0.081
13,ATGTATGC,-0.313 ± 0.036
14,CCGTACGC,0.0309 ± 0.032
15,CAAGGGAG,0.0129 ± 0.064
16,AAGCCGGT,-0.104 ± 0.082
17,GCGGGAGC,0.11 ± 0.073
18,TATTGTGA,0.221 ± 0.021
19,AGCTTCGC,0.164 ± 0.041
20,AAAGACTA,0.0435 ± 0.0041
21,CGTCCTAG,-0.207 ± 0.031
22,CCCCATCA,0.016 ± 0.033
23,CAGCTATC,-0.0508 ± 0.023
24,ATCTAATA,-0.137 ± 0.06
25,CGTAGATC,-0.291 ± 0.031

row,Sequence,PBM E-score of 8-mer
1,ACTAGACA,0.0421 ± 0.0072
2,AGAGGATA,-0.09 ± 0.037
3,CCTGCCAG,0.175 ± 0.013
4,ACGTTCCG,-0.127 ± 0.02
5,GTTCCGGA,-0.29 ± 0.027
6,AGTGGTAC,-0.105 ± 0.022
7,ATGATCCG,-0.0592 ± 0.027
8,AAAACGAC,-0.0291 ± 0.021
9,ATGCAGCG,-0.0556 ± 0.018
10,AGAATAGG,-0.0332 ± 0.043
11,GCTGTGCA,-0.0156 ± 0.043
12,CCCCCCGC,-0.114 ± 0.13
13,GGCAGGCC,-0.204 ± 0.077
14,GGCCAGCA,-0.0262 ± 0.027
15,CAAAGGTG,0.436 ± 0.018
16,CCATCAGC,-0.137 ± 0.0027
17,CCCAATCC,-0.0746 ± 0.016
18,GGAGACAA,0.063 ± 0.03
19,AATCCTAT,-0.119 ± 0.064
20,CCAGGTTC,-0.015 ± 0.0087
21,GCGACCCA,-0.109 ± 0.047
22,CTTTCCTC,-0.122 ± 0.018
23,CCCACAAC,0.196 ± 0.032
24,CGGTGGGA,-0.0368 ± 0.0018
25,CACTCGCA,0.318 ± 0.012

row,Sequence,PBM E-score of 8-mer
1,AAAACTCT,-0.0344 ± 0.046
2,ATAGGCCA,-0.33306 ± 4.2e-05
3,AGCGTGCA,-0.00975 ± 0.023
4,ATTCACTG,0.00421 ± 0.029
5,CTAATGGC,0.092 ± 0.063
6,GATACTGC,-0.104 ± 0.071
7,CACCGGGG,-0.158 ± 0.01
8,AGACGTCC,-0.187 ± 0.038
9,ATCTGAAA,-0.135 ± 0.059
10,CCCTGTAG,-0.302 ± 0.034
11,GACAAGTA,0.177 ± 0.024
12,ACAAACCG,0.0582 ± 0.00067
13,CGCTCGAA,-0.13 ± 0.011
14,AGGTCCTG,-0.0692 ± 0.1
15,AAACCACA,0.0722 ± 0.0013
16,AGAGCTTC,-0.284 ± 0.026
17,ACGAAACG,0.16 ± 0.01
18,TAGATAAA,-0.273 ± 0.045
19,CACTCAAC,0.149 ± 0.028
20,GGTGGATA,0.0315 ± 0.0046
21,GACTAACC,-0.0255 ± 0.038
22,GCTGCTTA,-0.109 ± 0.026
23,ACATAGTG,0.226 ± 0.0083
24,CCGTTTTA,-0.084 ± 0.026
25,CCAATTGG,-0.0183 ± 0.04

row,Sequence,PBM E-score of 8-mer
1,CAACCCCC,-0.14 ± 0.066
2,CGGCCCGA,-0.102 ± 0.04
3,CAAGTCCA,-0.092 ± 0.041
4,CGAATAAG,-0.0682 ± 0.055
5,CAACACGA,0.161 ± 0.015
6,AACGCAAG,-0.00147 ± 0.0068
7,GTATCGTA,0.0426 ± 0.048
8,ACCACGCC,0.1061 ± 0.00038
9,GCCTACGA,-0.122 ± 0.043
10,TCGACCGA,-0.133 ± 0.0071
11,AAGCAAGA,-0.023 ± 0.0061
12,ACCATTGA,0.0999 ± 0.094
13,CTTATAGA,-0.0803 ± 0.038
14,TAAGTCAA,-0.0607 ± 0.085
15,GACAATCC,0.106 ± 0.018
16,ACCGGGCG,0.0522 ± 0.0094
17,CAATTGGA,-0.22 ± 0.066
18,ATGGTTTC,-0.0592 ± 0.02
19,ATGCTAGC,0.0815 ± 0.0024
20,AGTACTGA,-0.0156 ± 0.036
21,CAGACCGC,-0.197 ± 0.0056
22,ACTATCAG,0.116 ± 0.002
